Data from the supplement of paper PMC4967469.
The IC50 comes from the fitted curve, where viability falls to half of the control; a limit (>, <) means that the fit lies beyond the doses tested. AUC is the area under the same curve over the 256-fold range up to the top dose, as a fraction; values near 1 show little effect. For some of these results: Where the top dose is marked as inferred, it was calculated from the reported fits. For some of these results: Drugs with an entry number were screened twice under separate entries, and the two screens often disagree.

Tests used:
Assay in all cases: Viability of human cancer cell lines after 72 h of drug (GDSC screen)
Bicalutamide = compound: CC(O)(CS(=O)(=O)c1ccc(F)cc1)C(=O)Nc1ccc(C#N)c(C(F)(F)F)c1 [Bicalutamide]; details: top dose inferred
Method: (§1)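 Human cancer cell lines in 384-well plates, medium with 10% serum, drug for 72 h over a 256-fold dose range (nine 2-fold or five 4-fold steps up to the top dose). Adherent lines were fixed and stained with the nucleic acid dye Syto60, suspension lines read with resazurin; signal relative to control wells, capped at 0 and 100%. One two-parameter sigmoid per drug and line, fitted in a mixed model over all curves with the slope shared within a line.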

KIN001-270 = compound: Cc1ccc(Nc2cc(-c3cccc(N4C(=O)c5ccccc5C4=O)c3)ncn2)cc1NS(C)(=O)=O [KIN001-270]; details: top dose 20 µM; top dose inferred
Method: as §1

TW-37 = compound: CC(C)c1ccccc1Cc1cc(C(=O)Nc2ccc(S(=O)(=O)c3ccccc3C(C)(C)C)cc2)c(O)c(O)c1O [TW-37]; details: top dose 5 µM
Method: as §1

LFM-A13 = compound: C/C(O)=C(\C#N)C(=O)Nc1cc(Br)ccc1Br [LFM-A13]; details: top dose 16 µM; top dose inferred
Method: as §1

MP470 = compound: S=C(NCc1ccc2c(c1)OCO2)N1CCN(c2ncnc3c2oc2ccccc23)CC1 [MP470]; details: top dose 20 µM; top dose inferred
Method: as §1

Nilotinib = compound: Cc1cn(-c2cc(NC(=O)c3ccc(C)c(Nc4nccc(-c5cccnc5)n4)c3)cc(C(F)(F)F)c2)cn1 [Nilotinib]; details: top dose 2 µM
Method: as §1

AUY922 = compound: CCNC(=O)c1noc(-c2cc(C(C)C)c(O)cc2O)c1-c1ccc(CN2CCOCC2)cc1 [AUY922]; details: top dose 0.256 µM; top dose inferred
Method: as §1

Gemcitabine = compound: Nc1ccn([C@@H]2O[C@H](CO)[C@@H](O)C2(F)F)c(=O)n1 [Gemcitabine]; details: top dose 1.024 µM
Method: as §1

T0901317 = compound: O=S(=O)(c1ccccc1)N(CC(F)(F)F)c1ccc(C(O)(C(F)(F)F)C(F)(F)F)cc1 [T0901317]; details: top dose 10.24 µM; top dose inferred
Method: as §1

[1] = top dose 1.024 µM, screen: GDSC drug entry 150
[2] = top dose 10 µM, screen: GDSC drug entry 1502

| Cell Line | AUC (Bicalutamide; [1]) | IC50 (Bicalutamide; [1]) [nM] | AUC (Bicalutamide; [2]) | IC50 (Bicalutamide; [2]) [nM] | AUC (KIN001-270) | IC50 (KIN001-270) [nM] | AUC (TW-37) | IC50 (TW-37) [nM] | AUC (LFM-A13) | IC50 (LFM-A13) [nM] | AUC (MP470) | IC50 (MP470) [nM] | AUC (Nilotinib) | IC50 (Nilotinib) [nM] | AUC (AUY922) | IC50 (AUY922) [nM] | AUC (Gemcitabine) | IC50 (Gemcitabine) [nM] | AUC (T0901317) | IC50 (T0901317) [nM] |
| --- | --- | --- | --- | --- | --- | --- | --- | --- | --- | --- | --- | --- | --- | --- | --- | --- | --- | --- | --- | --- |
| SKN (uterus, adherent) | 0.975 | > 1020 | 0.966 | > 10000 | 0.936 | > 20000 | 0.411 | 170 | 0.982 | > 16000 | 0.81 | 13400 | 0.86 | > 2000 | 0.675 | 55 | 0.578 | 109 | 0.966 | > 10200 |
| SKG-IIIa (cervix, adherent) | 0.98 | > 1020 | 0.95 | > 10000 | 0.982 | > 20000 | 0.591 | 605 | 0.972 | > 16000 | 0.917 | > 20000 | 0.983 | > 2000 | 0.698 | 70.4 | 0.715 | 323 | 0.982 | > 10200 |
| RVH-421 (melanoma, adherent) | 0.953 | > 1020 | 0.961 | > 10000 | 0.964 | > 20000 | 0.493 | 298 | 0.946 | > 16000 | 0.805 | 14900 | 0.929 | > 2000 | 0.566 | 25.9 | 0.846 | > 1020 | 0.979 | > 10200 |
| CS1 (bone, adherent) | 0.98 | > 1020 | 0.979 | > 10000 | 0.923 | > 20000 | 0.496 | 305 | 0.947 | > 16000 | 0.528 | 1510 | 0.984 | > 2000 | 0.581 | 27.4 | 0.59 | 117 | 0.983 | > 10200 |
| CFPAC-1 (pancreas, adherent) | 0.975 | > 1020 | 0.979 | > 10000 | 0.979 | > 20000 | 0.603 | 626 | 0.952 | > 16000 | 0.977 | > 20000 | 0.973 | > 2000 | 0.499 | 15.9 | 0.124 | < 4 | 0.974 | > 10200 |
| SW48 (large intestine, adherent) | 0.975 | > 1020 | 0.985 | > 10000 | 0.973 | > 20000 | 0.468 | 256 | 0.986 | > 16000 | 0.939 | > 20000 | 0.985 | > 2000 | 0.547 | 21.4 | 0.741 | 312 | 0.979 | > 10200 |
| SK-N-AS (neuroblastoma, adherent) | 0.983 | > 1020 | – | – | 0.98 | > 20000 | 0.474 | 263 | 0.958 | > 16000 | 0.931 | > 20000 | 0.972 | > 2000 | 0.823 | 182 | 0.892 | > 1020 | 0.965 | > 10200 |
| SK-MEL-30 (melanoma, adherent) | 0.986 | > 1020 | 0.983 | > 10000 | 0.984 | > 20000 | 0.254 | 58.8 | 0.975 | > 16000 | 0.966 | > 20000 | 0.983 | > 2000 | 0.571 | 25.4 | 0.128 | < 4 | 0.986 | > 10200 |
| DMS-273 (small cell lung carcinoma, adherent) | 0.982 | > 1020 | – | – | 0.91 | > 20000 | 0.298 | 81.2 | 0.968 | > 16000 | 0.744 | 6580 | 0.983 | > 2000 | 0.633 | 38.1 | 0.296 | 16.4 | 0.937 | > 10200 |
| U-118-MG (glioma, adherent) | 0.984 | > 1020 | 0.972 | > 10000 | 0.981 | > 20000 | 0.464 | 246 | 0.976 | > 16000 | 0.948 | > 20000 | 0.973 | > 2000 | 0.538 | 20.7 | 0.822 | 722 | 0.969 | > 10200 |
| RPMI-2650 (head and neck, adherent) | 0.985 | > 1020 | 0.962 | > 10000 | 0.94 | > 20000 | 0.501 | 315 | 0.942 | > 16000 | 0.942 | > 20000 | 0.985 | > 2000 | 0.499 | 15.9 | 0.277 | 14 | 0.972 | > 10200 |
| CAPAN-1 (pancreas, adherent) | 0.985 | > 1020 | – | – | 0.986 | > 20000 | 0.908 | > 5000 | 0.959 | > 16000 | 0.933 | > 20000 | 0.975 | > 2000 | 0.744 | 87.7 | 0.272 | 13.2 | 0.98 | > 10200 |
| NCI-H2444 (non-small cell lung carcinoma, adherent) | 0.988 | > 1020 | 0.981 | > 10000 | 0.988 | > 20000 | 0.829 | 3710 | 0.987 | > 16000 | 0.933 | > 20000 | 0.983 | > 2000 | 0.988 | > 256 | 0.988 | > 1020 | 0.986 | > 10200 |
| FU-OV-1 (ovary, adherent) | 0.975 | > 1020 | 0.979 | > 10000 | 0.981 | > 20000 | 0.677 | 1140 | 0.912 | > 16000 | 0.939 | > 20000 | 0.977 | > 2000 | 0.77 | 129 | 0.969 | > 1020 | 0.971 | > 10200 |
| HCC1428 (breast, adherent) | 0.987 | > 1020 | 0.986 | > 10000 | 0.988 | > 20000 | 0.546 | 423 | 0.941 | > 16000 | 0.941 | > 20000 | 0.988 | > 2000 | 0.819 | 164 | 0.981 | > 1020 | 0.982 | > 10200 |
| Detroit562 (head and neck, adherent) | 0.988 | > 1020 | 0.986 | > 10000 | 0.972 | > 20000 | 0.736 | 1420 | 0.981 | > 16000 | 0.93 | > 20000 | 0.972 | > 2000 | 0.619 | 33.5 | 0.281 | 15.8 | 0.983 | > 10200 |
| MKN45 (stomach, adherent) | 0.89 | > 1020 | 0.978 | > 10000 | 0.979 | > 20000 | 0.506 | 325 | 0.973 | > 16000 | 0.951 | > 20000 | 0.976 | > 2000 | 0.838 | 243 | 0.36 | 23.6 | 0.979 | > 10200 |
| CAL-33 (head and neck, adherent) | 0.985 | > 1020 | – | – | 0.979 | > 20000 | 0.668 | 920 | 0.971 | > 16000 | 0.922 | > 20000 | 0.922 | > 2000 | 0.552 | 22.1 | 0.171 | 6.41 | 0.975 | > 10200 |
| Ca-Ski (cervix, adherent) | 0.982 | > 1020 | 0.964 | > 10000 | 0.959 | > 20000 | 0.518 | 352 | 0.945 | > 16000 | 0.841 | 16400 | 0.938 | > 2000 | 0.592 | 29.4 | 0.258 | 11.8 | 0.967 | > 10200 |
| AN3-CA (endometrium, adherent) | 0.985 | > 1020 | 0.963 | > 10000 | 0.979 | > 20000 | 0.728 | 1490 | 0.964 | > 16000 | 0.93 | > 20000 | 0.976 | > 2000 | 0.404 | 8.53 | 0.56 | 94.6 | 0.979 | > 10200 |
| NCI-H1693 (lung adenocarcinoma, adherent) | 0.97 | > 1020 | 0.941 | > 10000 | 0.965 | > 20000 | 0.678 | 1330 | 0.951 | > 16000 | 0.977 | > 20000 | 0.898 | > 2000 | 0.627 | 44.2 | 0.512 | 70.2 | 0.976 | > 10200 |
| KYM-1 (rhabdomyosarcoma, adherent) | 0.99 | > 1020 | 0.967 | > 10000 | 0.99 | > 20000 | 0.634 | 691 | 0.991 | > 16000 | 0.926 | > 20000 | 0.981 | > 2000 | 0.777 | 87.9 | 0.024 | < 4 | 0.983 | > 10200 |
| KYSE-50 (oesophagus, adherent) | 0.99 | > 1020 | 0.989 | > 10000 | 0.987 | > 20000 | 0.457 | 242 | 0.97 | > 16000 | 0.949 | > 20000 | 0.99 | > 2000 | 0.504 | 16.4 | 0.361 | 27.5 | 0.959 | > 10200 |
| BHT-101 (thyroid, adherent) | 0.985 | > 1020 | 0.948 | > 10000 | 0.956 | > 20000 | 0.361 | 127 | 0.954 | > 16000 | 0.931 | > 20000 | 0.719 | 534 | 0.631 | 37.2 | 0.562 | 94.9 | 0.967 | > 10200 |
